Results: PubChem BioAssay AID624417 (National Center for Advancing Translational Sciences (NCATS), 2012)
Hit rate of the full screen: of about 410,000 compounds, about 6,400 (1.6%) were called active. This list was built around the results that the source calls inconclusive (neither active nor inactive); the mix of calls is not that of the screen. Calls come from the whole dose curve; as a rule, active = well fitted inhibition curve with a large enough effect; inconclusive = small, poorly fitted or top-dose-only effect; inactive = no such curve, though single readings can be large or run the other way. Potencies of inconclusive entries are doubtful fits and often do not repeat.

Target: Glucagon-like peptide 1 receptor (Homo sapiens) (UniProt P43220)
UniProt P43220, sequence (P43220 whole entry, looked up): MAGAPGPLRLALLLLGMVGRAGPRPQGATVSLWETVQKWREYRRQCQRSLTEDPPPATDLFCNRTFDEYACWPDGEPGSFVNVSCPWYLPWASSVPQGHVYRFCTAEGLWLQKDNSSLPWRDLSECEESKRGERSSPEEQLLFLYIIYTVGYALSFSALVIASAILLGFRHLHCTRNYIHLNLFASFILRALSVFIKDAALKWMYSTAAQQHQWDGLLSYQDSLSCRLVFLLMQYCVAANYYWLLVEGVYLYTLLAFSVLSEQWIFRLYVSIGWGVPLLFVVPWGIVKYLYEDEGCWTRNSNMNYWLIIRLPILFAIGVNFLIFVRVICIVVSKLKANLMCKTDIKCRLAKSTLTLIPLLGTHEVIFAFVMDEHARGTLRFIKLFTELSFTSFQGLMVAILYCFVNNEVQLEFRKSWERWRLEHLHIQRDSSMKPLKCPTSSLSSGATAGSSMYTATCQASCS
Test: qHTS of GLP-1 Receptor Inverse Agonists (Inhibition Mode); note: nearly all actives have a fitted effect of over 55% in size
Conditions: HEK293 GLP-1R CRE-luciferase, luminescence, 24 h, GLP-1R form is constitutively active; activity change, negative = inhibition: at 38.3 µM (top of the series) unless noted
Procedure, shortened: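 HEK293 cells stably co-expressing constitutively active GLP-1R and a cAMP-responsive luciferase reporter were seeded in DMEM with 10% Nu serum, given compounds after 12 h, and incubated 24 h at 37 deg C. Luminescence was then read.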
% is set by controls: 0 for no effect and ±100 for the full control effect; potency is the fitted concentration of half-maximal effect; tags give direction and shape of the fitted curve.

Potency, inactive:
O=C1c2ccccc2C(c2nnnn2-c2ccc3c(c2)OCCO3)N1Cc1cccc(F)c1 (centres undefined)
COc1ccc(C(=O)CN2CCN(S(=O)(=O)c3ccc(F)cc3)CC2)cc1
Cc1ccc2c(c1)C(=O)OC(C(=O)Nc1ccc(C(=O)O)cc1)C2 (centres undefined)
COCC(=O)Nc1nc2n(n1)C(c1ccc(OC)cc1)CC(c1ccc(OC)cc1)N2 (centres undefined)
COC(OC)c1nc(SCC(=O)Nc2cccc(Cl)c2)ncc1C(=O)O
CCC(=O)N1c2ccccc2CC1C(=O)NCCCN1CCN(c2cccc(Cl)c2)CC1 (centres undefined)
COc1cc2c(cc1OC)C(COc1ccc3c(C)cc(=O)oc3c1)N(C(=O)c1ccc(C)cc1)CC2 (centres undefined)
O=C1NC(=O)c2c(Br)c(Br)c(Br)c(Br)c21
COc1ccc(Cl)cc1NC(=O)c1ccc(CN2C(=O)CCn3nc(C)cc32)cc1
COCC1CCCCN1C(=O)c1cc(COc2ccc3ncccc3c2)on1 (centres undefined)
CCOc1ccc(C2C(=O)N(C3CCCCC3)CC(=O)N2Cc2ccccc2OC)cc1OC (centres undefined)

Potency, inconclusive:
COc1ccc(C2C3=C(COC3=O)Oc3cc4c(cc32)OCO4)cc1OC (centres undefined) 1.12 µM [inhibitor, full curve, poor fit]
OCCC1CN(Cc2nc(-c3ccccc3)cs2)CCN1C1CCCC1 (centres undefined) 1.12 µM [inhibitor, full curve, poor fit]
Cc1ccc(C(NC(=O)N2CCOCC2)C(Cl)(Cl)Cl)cc1F (centres undefined) 31.6 µM [inhibitor, single point]
COc1ccccc1N1CCN(C(c2cccs2)C(C)NS(=O)(=O)c2ccccc2)CC1 (centres undefined) 12.6 µM [inhibitor, single point]
CCO[C@@H]1OC(C(=O)NCc2ccccc2)=C[C@H](C(C)(C)C)[C@H]1CCCO 10 µM [inhibitor, partial curve, poor fit]
CCOc1ccc(Nc2nc(N)c(C(=O)c3ccccc3Cl)s2)cc1 7.94 µM [inhibitor, partial curve, poor fit]
S=C(NCc1ccccc1)N1CCc2ccccc2C1 8.91 µM [inhibitor, partial curve]
O=C(NC(=S)Nc1ccccc1Br)C1CC1 28.2 µM [inhibitor, single point]
CC1=C(CC[C@@H](C)CO)OC2CC3C4CCC5CC(O)CCC5(C)C4CC(=O)C3(C)C12 (some centres undefined) 28.2 µM [inhibitor, single point]
O=c1c2cc([N+](=O)[O-])cc([N+](=O)[O-])c2[nH]n1-c1ccccc1 20 µM [inhibitor, single point]
Fc1ccc(Nc2nc(SCc3cccc(F)c3)nc3ccccc23)cc1 11.2 µM [inhibitor, partial curve, poor fit]
Cc1csc(Nc2ccccc2)[n+]1-c1ccccc1 12.6 µM [inhibitor, single point]
COCOCCn1cc(CN2CCS(=O)(=O)N(Cc3ccc(-c4ccc(F)cc4)cc3)C(CC(C)C)C2=O)nn1 (centres undefined) 28.2 µM [inhibitor, single point]
Cc1cccc(OCCCC(=O)Nc2ccc(N(C)C)cc2)c1 28.2 µM [inhibitor, single point]
O=C1COc2ccc(S(=O)(=O)Nc3ccc(F)cc3)cc2N1 28.2 µM [inhibitor, single point]
CCNc1ccc(Br)cc(C(=O)/C=C/c2ccc(Cl)cc2Cl)c1=O 28.2 µM [inhibitor, single point]
CN(C)S(=O)(=O)NCC1CCCN(Cc2ccc(-c3ccccc3)cc2)C1 (centres undefined) 11.2 µM [inhibitor, partial curve, poor fit]
CC(C)n1cnc2c(NCc3ccccc3)nc(NCc3ccccc3)nc21 20 µM [inhibitor, partial curve, poor fit]
Cc1cc2c(cc1C)-c1c(ssc1=Nc1ccc(S(N)(=O)=O)cc1)C(C)(C)N2 10 µM [inhibitor, partial curve, poor fit]
c1ccc(-c2cc(-c3ccccc3)n3ncnc3n2)cc1 28.2 µM [inhibitor, single point]
OC(c1cccc(Cl)c1)c1nc(-c2ccccc2)cs1 (centres undefined) 11.2 µM [inhibitor, partial curve, poor fit]
O=C(Nc1ccc(Cl)cc1)c1ccc2oc(=O)n(Cc3ccccc3)c2c1 5.01 µM [inhibitor, partial curve]
O=C(CN1CCN(c2ccccc2O)CC1)NC(=O)NCc1ccccc1 31.6 µM [inhibitor, single point]
Cc1cccc(Nc2ncnc3onc(-c4cccc(Cl)c4)c23)c1 28.2 µM [inhibitor, single point]
CCOc1ccccc1CNC(=O)C(CC)n1nc(C)c2c(C)n(-c3ccccc3)nc2c1=O (centres undefined) 14.1 µM [inhibitor, partial curve, poor fit]
CC1CN(C2CCCCC2)C(=S)N(c2ccccc2)C1=O (centres undefined) 2.51 µM [inhibitor, partial curve, poor fit]
CC(=O)Nc1cccc(C(=O)/C=C/c2ccc(F)cc2)c1 28.2 µM [inhibitor, single point]
CCOC(=O)N1CCC(NC(=O)c2ccc3c(c2)N(Cc2ccccc2)C(=O)c2ccccc2S3(=O)=O)CC1 8.91 µM [inhibitor, partial curve, poor fit]
COc1ccc(CCN2C(=O)C=CC2=O)cc1OC 22.4 µM [inhibitor, single point]
Cc1nc(N(C)Cc2ccccc2)c2c(C)c(C)sc2n1 28.2 µM [inhibitor, single point]
O=C(O)c1cccc(N2C(=O)c3cc([N+](=O)[O-])cc4cc([N+](=O)[O-])cc(c34)C2=O)c1 14.1 µM [inhibitor, partial curve, poor fit]
Cc1ccc(-c2csc(N(CCCN3CCOCC3)C(=O)c3ccco3)n2)cc1 28.2 µM [inhibitor, single point]
Cc1ccc2c(c1)Sc1ccccc1CC2=O 11.2 µM [inhibitor, single point]
CC(C)(C)OC(=O)N(CCc1ccccc1)Cc1ccccc1OCc1ccc(NC(=O)C2CCCC2)cc1 12.6 µM [inhibitor, single point]
CCc1ccc(/C=N/NC(=O)c2cc(C3CC3)nc3ccc(Br)cc23)s1 8.91 µM [inhibitor, partial curve, poor fit]
COc1cccc(-c2nn(-c3ccccc3)cc2CN(C)C(C)c2ccncn2)c1 (centres undefined) 11.2 µM [inhibitor, single point]
Cc1ccc2c(c1)C(c1ccccc1)N(C(=O)c1ccccc1)CC(=O)N2 (centres undefined) 12.6 µM [inhibitor, single point]
COC(=O)C1=C(C)N(Cc2ccccc2)C(=NCCc2ccccn2)N[C@H]1c1cccc(F)c1 10 µM [inhibitor, partial curve, poor fit]
CCc1ccccc1NS(=O)(=O)c1cc(C)ccc1OC 12.6 µM [inhibitor, partial curve]
Cc1ccc(CN2CCC(C(=O)c3ccc(F)cc3)CC2)cc1 2.24 µM [inhibitor, full curve]
CC(Sc1nc2ccccc2[nH]1)C(=O)NC1CCCCC1C (centres undefined) 22.4 µM [inhibitor, single point]
CC(C)Oc1ccc(CNC(=O)c2cc3cccc4c3n2CC(C)S4)cc1 (centres undefined) 28.2 µM [inhibitor, single point]
Cc1ccc(Cl)cc1NC(=S)N(CCCN1CCN(C)CC1)Cc1cccs1 14.1 µM [inhibitor, partial curve, poor fit]
COc1ccc(N2CC(C(=O)Nc3nc4ccc(F)cc4s3)CC2=O)c(OC)c1 (centres undefined) 25.1 µM [inhibitor, single point]
CN(C)c1cc2c3ccccc3n(C)c2cc1N 0.708 µM [inhibitor, full curve, poor fit]
Cc1ccc(Cn2c(C(=O)Nc3ccc(Cl)cc3)cc3sccc32)cc1 10 µM [inhibitor, partial curve, poor fit]
Cc1ccc(-c2onc(C)c2C)cc1S(=O)(=O)N1CCC(C)CC1 31.6 µM [inhibitor, single point]
COc1ccc(-c2cc(C(F)(F)F)n3ncc(C(=O)N(C)Cc4ccccc4)c3n2)cc1 28.2 µM [inhibitor, single point]
Cc1ccc2c(c1)C1CN(C)CCC1N2S(=O)(=O)c1cccc(C(F)(F)F)c1 (centres undefined) 28.2 µM [inhibitor, single point]
CCN(CC)C(=O)[C@H]1C[C@H](CC(=O)NCCCN(C)C)C(=O)N2CCc3c([nH]c4cc(-c5ccco5)ccc34)[C@]12C 28.2 µM [inhibitor, single point]

Potency, active:
CNC(=S)N/N=C(\C)c1ccc2c(c1)OCO2 10 µM
NC(=O)C1CCCCc2c1[nH]c1ccc(Cl)cc21 (centres undefined) 12.6 µM

Activity change, negative = inhibition, inconclusive:
O=C(Nc1sc2c(c1C(=O)c1ccc(Cl)cc1)CCCC2)c1cccnc1 -31% [inhibitor]
